Seven molecules from patent US20230331823A1 (HENRY M JACKSON FOUNDATION FOR THE ADVANCEMENT OF MILITARY …, published 2023) can be followed below.

In test [1] the target is SARS-CoV-2 Alpha (B.1.1.7) Spike on pseudovirions (SARS-CoV-2). Description: cell-based or functional assay.
For test [2], the target named is SARS-CoV-2 Beta (B.1.351) Spike on pseudovirions (SARS-CoV-2). Description: cell-based or functional assay.

B1: ShAb02a (ShAb02 VNAR-3c-Fc) (Fc fusion)
chain: ARVDQTPQTITKETGESLTINCVLRDSNCALASTDWYRKKSGSTNEESISKGGRYVETVNSGSKSFSLRINDLTVEDSGTYRCNAWDSWETRQLKCDYDVYGGGTVVTVNSREPKSCDKGLEVLFQ[no letters for human IgG1 Fc and a few adjoining residues]
As for B1, in test [1], the “pseudovirus neutralization IC50” value was less than 0.023 µg/mL and the “pseudovirus neutralization IC80” value was 0.028 µg/mL. In test [2], the “pseudovirus neutralization IC50” value amounted to 0.043 µg/mL and the “pseudovirus neutralization IC80” value was 0.301 µg/mL.

B2: ShAb04a (ShAb04 VNAR-3c-Fc) (Fc fusion)
chain: ARVDQTPQTITKETGESLTINCGLRDSNCALSSTYWYRKKSGSTNEESISKGGRYVETVNSGPLTFSLRINDLTVEDSGTYRCKVSCLAIPIGPHYDVYGGGTVVTVNSREPKSCDKGLEVLFQ[no letters for human IgG1 Fc and a few adjoining residues]
On to B2, for which, in test [1], the “pseudovirus neutralization IC50” value stood at 18.6 µg/mL and the “pseudovirus neutralization IC80” value is more than 50 µg/mL. In addition, in test [2], the “pseudovirus neutralization IC50” value stood at 37 µg/mL and the “pseudovirus neutralization IC80” value is more than 50 µg/mL.

B3: ShAb21a (ShAb21 VNAR-3c-Fc) (Fc fusion)
chain: ARVDQTPRSVTKETGESLTINCVLREARYELGRTCWYRKKSGSRNEESISEGGRYVETVNSGSKSFSLRINDLTVEDGGTYRCGVPAAGWCPERCAPDPPYAVCGGGTVVTVNSREPKSCDKGLEVLFQ[no letters for human IgG1 Fc and a few adjoining residues]
For the molecule B3, in test [1], the “pseudovirus neutralization IC50” value was determined as 1.36 µg/mL and the “pseudovirus neutralization IC80” value is more than 2 µg/mL. In test [2], the “pseudovirus neutralization IC50” value came to 0.676 µg/mL and the “pseudovirus neutralization IC80” value is more than 2 µg/mL.

B4: ShAb01a (ShAb01 VNAR-3c-Fc) (Fc fusion)
chain: ARVDQTPRSVTKETGESLTINCVLRDSNCALSSTHWYRKKSGSTNEERILQGRRYVETVNSGSKSFSLRINDLRVEDSGTYRCKVYWGNSWQDKFCPGLGSYEYGDGTAVTVNSREPKSCDKGLEVLFQ[no letters for human IgG1 Fc and a few adjoining residues]
For the molecule B4, the “pseudovirus neutralization IC50” value came to 0.463 µg/mL in test [1] and 0.457 µg/mL in test [2].

B5: ShAb09a (ShAb09 VNAR-3c-Fc) (Fc fusion)
chain: ARVDQTPQTITKETGESLTIDCVLRDSNCALSSTHWYRKKSGSTNEERILQGRRYVETVNSGSKSFSLRINDLRVEDSGTYRCKVYWGNSWQDKFCPGLGSYEYGGGTVVTVNSREPKSCDKGLEVLFQ[no letters for human IgG1 Fc and a few adjoining residues]
As for B5, the “pseudovirus neutralization IC50” value in test [1] came to 0.785 µg/mL; in test [2] it was 1.28 µg/mL.

B6: ShAb19a (ShAb19 VNAR-3c-Fc) (Fc fusion)
chain: ARVDQTPQTITKATGESLTINCVLRDASYALGRTCWYRKKSGSTNEESISLGGRYVETVNSGSKSFSLRINDLTVEDGGTYRCGAHRWWTVCGMPAPYAESGGGTVVTVNSREPKSCDKGLEVLFQ[no letters for human IgG1 Fc and a few adjoining residues]
B6: in test [1], the “pseudovirus neutralization IC50” value turned out to be 4.13 µg/mL and the “pseudovirus neutralization IC80” value is more than 5 µg/mL. Further, in test [2], the “pseudovirus neutralization IC50” value was 2.13 µg/mL and the “pseudovirus neutralization IC80” value was more than 5 µg/mL.

B7: ShAb18a (ShAb18 VNAR-3c-Fc) (Fc fusion)
chain: ARVDQTPRSVTKETGESLTINCVLREARYELGKTCWYRKRAGSTNEESISAGGRYVETVISGSKSFSLRINDLTVEDGGTYRCGVPPAGWCSKVSCDHVGAGVLEPAACGGGTVVTVNSREPKSCDKGLEVLFQ[no letters for human IgG1 Fc and a few adjoining residues]
B7: the “pseudovirus neutralization IC50” value in test [1] is 0.196 µg/mL; in test [2], 0.494 µg/mL. Besides, the “pseudovirus neutralization IC80” value in test [1] was found to be 2.22 µg/mL; in test [2], 1.83 µg/mL.
